# Experimental data reported in publication PMC4336329 (PLoS ONE, 2015).
# Screen size: about 310,000 compounds; about 14,000 (4.5%) showed an effect of 50% or more. The effect is printed as a negative number. The list shows a part of the results.
# Target: human ether-à-go-go-related gene (hERG) potassium channel (human, UniProt Q12809)
# Experiment: primary screen, population patch clamp on CHO cells stably expressing hERG
# 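Further: peak tail current of the secondary pulse compared with the same well before compound.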
# human ether-à-go-go-related gene (hERG) potassium channel, sequence (Q12809 whole entry, looked up): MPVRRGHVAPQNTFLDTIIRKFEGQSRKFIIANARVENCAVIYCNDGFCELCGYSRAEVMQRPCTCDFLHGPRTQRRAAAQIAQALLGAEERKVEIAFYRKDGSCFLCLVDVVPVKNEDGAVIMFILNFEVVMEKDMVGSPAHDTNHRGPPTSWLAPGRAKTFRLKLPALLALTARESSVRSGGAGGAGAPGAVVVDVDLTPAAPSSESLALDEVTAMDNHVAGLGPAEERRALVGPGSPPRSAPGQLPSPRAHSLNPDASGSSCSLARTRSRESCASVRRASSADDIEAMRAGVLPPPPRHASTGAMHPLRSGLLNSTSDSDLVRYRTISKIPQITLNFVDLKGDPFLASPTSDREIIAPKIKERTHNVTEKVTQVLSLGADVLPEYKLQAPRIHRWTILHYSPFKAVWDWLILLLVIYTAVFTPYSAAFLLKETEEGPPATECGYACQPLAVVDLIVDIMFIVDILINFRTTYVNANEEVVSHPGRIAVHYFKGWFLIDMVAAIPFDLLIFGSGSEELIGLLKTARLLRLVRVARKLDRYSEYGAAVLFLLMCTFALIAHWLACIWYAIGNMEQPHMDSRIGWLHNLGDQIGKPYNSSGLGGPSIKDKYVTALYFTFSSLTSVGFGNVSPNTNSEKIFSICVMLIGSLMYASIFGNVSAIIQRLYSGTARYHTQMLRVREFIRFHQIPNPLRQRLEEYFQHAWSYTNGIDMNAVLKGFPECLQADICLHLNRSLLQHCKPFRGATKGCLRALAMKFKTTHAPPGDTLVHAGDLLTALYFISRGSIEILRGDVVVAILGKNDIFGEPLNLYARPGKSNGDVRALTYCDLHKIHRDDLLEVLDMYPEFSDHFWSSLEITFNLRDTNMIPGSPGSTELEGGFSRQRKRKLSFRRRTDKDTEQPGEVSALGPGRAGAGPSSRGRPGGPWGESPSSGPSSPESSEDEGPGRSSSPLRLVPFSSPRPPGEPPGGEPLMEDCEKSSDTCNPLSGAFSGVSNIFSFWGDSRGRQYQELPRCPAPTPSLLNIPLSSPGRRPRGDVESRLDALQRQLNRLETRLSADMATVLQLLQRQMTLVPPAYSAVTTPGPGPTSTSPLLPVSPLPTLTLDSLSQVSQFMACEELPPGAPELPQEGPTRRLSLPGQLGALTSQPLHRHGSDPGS
row,SMILES,"hERG current change (%, negative = inhibition) at 10uM [%]"
1,O=C(CNC(=O)Cc1ccccc1)NCc1cccc(C(F)(F)F)c1,15.8
2,COc1ccc(C)cc1-n1nnnc1SCC(=O)NC1CCS(=O)(=O)C1 (stereo not shown),-3.08
3,Cc1ccc(NC(=O)C2CCCN2S(=O)(=O)c2ccc3c(c2)n(C)c(=O)c(=O)n3C)c(C)c1 (stereo not shown),-40.6
4,COc1cccc(C2/C(=C(/O)c3cnn(-c4ccccc4)c3C)C(=O)C(=O)N2CCN(C)C)c1 (stereo not shown),18.2
5,CC(C)(C)NC(=O)C(c1ccc(F)cc1)N(Cc1ccccc1Cl)C(=O)c1ccn[nH]1 (stereo not shown),25.6
6,CCOC(=O)c1ccc(NC(=O)CSc2nnc(Cn3c(=O)sc4ccccc43)n2C)cc1,10.6
7,COc1cccc(CN2CCNC(=O)C2CC(=O)NCC(C)(C)N2CCOCC2)c1OC (stereo not shown),19.7
8,O=C(Nc1nc2ccsc2c(=O)s1)c1ccc(Cl)cc1,8.93
9,Oc1ccccc1Oc1c(F)c(F)nc(N2CCCC2)c1F,-4.15
10,COC(=O)CCC(=O)OC1(C)C(=O)C2=CN(Cc3ccc(OC)cc3)C(c3ccc(OC)cc3)=CC2=C(Br)C1=O (stereo not shown),-58.7
11,CCCC[C@H](CC(=O)c1ccccc1)[C@@H](OC(C)=O)C(=O)Oc1c(C(C)C)cccc1C(C)C,2.69
12,COc1cc(C2N(c3ccccc3)CCN2c2ccccc2)cc(OC)c1OC,3.48
13,COc1ccc(CCNC(=O)c2oc3ccc(S(=O)(=O)N4CCOCC4)cc3c2C)cc1OC,-16.5
14,O=C(CCc1ccccc1)NNc1ccc(F)cc1,13
15,CCOC(=O)C1CCN(C(=O)CNC(=O)c2nn(-c3ccc(OC)c(Cl)c3)c(=O)c3ccccc23)CC1,-55
16,O=C(Nc1cc(F)ccc1F)C1CCN(S(=O)(=O)c2cccc3nonc23)CC1,5.02
17,COC(=O)/C=C/c1oc2ccccc2c1C,7.83
18,COc1ccc(NC(=O)CCC(=O)OCC(=O)c2ccc(Oc3ccc([N+](=O)[O-])cc3)cc2)cc1,15.6
19,CC(C)Sc1nnc([C@H](C)NC(=O)OC(C)(C)C)o1,-7.8
20,N#Cc1c2n(cnc1=O)CCCCC2,21.8
21,COc1ccc(CC(=O)NCCc2cnc[nH]2)cc1,17.5
22,COC(=O)c1nc2nc(C)cc(=O)n2[nH]1,20.2

row,SMILES,"hERG current change (%, negative = inhibition) at 10uM [%]"
1,COC(=O)COc1ccc(C(C2C(=O)CC(C)(C)CC2=O)C2C(=O)CC(C)(C)CC2=O)cc1,15.8
2,CC(=O)Nc1nonc1NC(=O)CSC1=NCCS1,11.3
3,Clc1ccc(SCc2cn3cccnc3n2)cc1,-15.5
4,CSc1nnc2c(n1)OC(c1ccccn1)N(C(C)=O)c1ccccc1-2 (stereo not shown),1.42
5,Cc1cccc(N2CCN(C(=O)c3ccc(NC(=O)C4CCCO4)cc3)CC2C)c1 (stereo not shown),0.848
6,COc1ccc([N+](=O)[O-])cc1NS(=O)(=O)c1ccc(C)cc1,0.188
7,O=C(NCC(=O)N1CCN(c2ccccc2O)CC1)c1cccs1,3.84
8,Cc1c(C#N)c2ccccc2n1CC(=O)NCC1CCCO1 (stereo not shown),16.8
9,Br.COc1ccc(-c2cn3c(n2)CCC3)cc1,-2.5
10,O=C(CN(C(=O)C1CSC(=O)C1)c1ccc(F)cc1)NCc1ccc2c(c1)OCO2 (stereo not shown),6.05
11,Nc1nnc(SCC(=O)OCC(=O)c2ccccc2Br)s1,22
12,Nc1nonc1OCCCCOc1nonc1N,22.1
13,Cc1ccc(S(=O)(=O)CC(=O)N(CCCN(C)C)c2nc3ccc(C)cc3s2)cc1.Cl,-43.9
14,Cc1ccc(OCC(=O)O)c(-n2nc3ccccc3n2)c1,9.62
15,Cc1ccc(C)c(N2CCN(S(=O)(=O)c3ccc4[nH]c(=O)c(=O)[nH]c4c3)CC2)c1,10.9
16,CCOc1ccccc1NC(=O)Cn1ncc2ccc([N+](=O)[O-])cc21,-3.28
17,Cc1ccc(CNC(=O)Cn2c([N+](=O)[O-])cnc2C)cc1,11.3
18,CN1N=C(C(=O)NC2CCCc3c2cnn3-c2ccc(F)cc2F)CCC1=O (stereo not shown),-1.13
19,O=C1N=C(N2CCC(Cc3ccccc3)CC2)S/C1=C/c1cn[nH]c1-c1ccccc1,-2.87
20,CCCCCc1cc(=O)[nH]c(=S)[nH]1,21.6
21,O=S1(=O)N=CN(Cc2cccc(F)c2)c2ccccc21,2.85
22,CCc1ccc(-c2cc(C)no2)cc1S(=O)(=O)N1CCN(c2cccc(C)c2C)CC1,18.3

row,SMILES,"hERG current change (%, negative = inhibition) at 10uM [%]"
1,Cc1ccc(C)c(N2CCN(CC3CC=CCC3)CC2)c1 (stereo not shown),-7.32
2,COc1ccccc1CN1C[C@@H]2C[C@@H](c3ccccc3C)N3CCC[C@@]23C1=O,17.4
3,CC[C@H](C)Cc1cn([C@@H](CCCCNC(=O)OC(C)(C)C)C(=O)NCCCCCCCCCCC(=O)N2CCN(C(=O)OC(C)(C)C)CC2)nn1,-7.18
4,O=C(CN1C(=O)NC2(CCCCCC2)C1=O)NC1CCCCCCC1,12.8
5,O=C(Nc1cccc(F)c1)NC1(C(=O)NCC2CCCO2)CCCCC1 (stereo not shown),14.4
6,O=C(Nc1cc(Cl)ccc1O)c1cc2n(n1)C(C(F)(F)F)CC(c1ccc3c(c1)OCO3)N2 (stereo not shown),-4.28
7,O=C(CCC(=O)c1ccc(Oc2ccccc2)cc1)Nc1ccc(Cl)cc1Cl,5.46
8,COc1ccccc1NC(=O)c1ccc(NS(=O)(=O)c2ccc(F)c(Cl)c2)cc1,7.49
9,Cc1nc2cc(C(F)(F)F)ccc2n1CCNc1nc(-c2ccc(F)cc2)cs1,4.09
10,COc1ccc(-c2[nH]ncc2/C=N\NS(=O)(=O)c2ccccc2)cc1OC,8.63
11,COc1cc2c(C#N)c(N3CCOCC3)nc(N)c2c(N)n1,0.381
12,COCC(CN1CCN(C2=NS(=O)(=O)c3ccccc32)CC1)OC(=O)c1ccccc1 (stereo not shown),-24
13,CC(C)C[C@H](NC(=O)c1[nH]cnc1C(=O)Nc1ccc(CNC(=O)OC(C)(C)C)cc1)C(=O)OC(C)(C)C,16.1
14,CC1(c2ccc(Cl)cc2)NC(=O)N(CC(=O)NC(=O)NCc2ccco2)C1=O (stereo not shown),1.81
15,S=C(CN1CCCC1=S)NCCc1ccccc1,14.3
16,NC(=O)CSc1nnc(-c2cccs2)n1Cc1ccco1,-13.9
17,O=C(CC(NCCc1ccccc1)C(=O)O)Nc1ccc(O)cc1 (stereo not shown),-10.2
18,C/C(CC(=O)Nc1ccccc1[N+](=O)[O-])=N\NC(=O)COc1ccccc1C,-5.65
19,Cc1c(C(=O)N2CCCC2)oc2ccc(Br)cc12,5.87
20,CC1CCCCC1NC(=O)CSc1nnc(COc2ccccc2Cl)o1 (stereo not shown),6.74
21,CC(C)(C)c1ccc(C(=O)C2CCCN(C3CCC3)C2)cc1 (stereo not shown),-18.4
22,CN(C(=O)CSc1nnc(CNC(=O)c2ccccc2)o1)c1ccccc1,-4.27

row,SMILES,"hERG current change (%, negative = inhibition) at 10uM [%]"
1,CCn1c(=N)c(S(=O)(=O)c2ccc(F)cc2)cc2c(=O)n3ccccc3nc21,-10.5
2,CCOC(=O)Cc1csc(NC(=O)c2cc(OC)cc(OC)c2)n1,-10.6
3,CCCC(C)c1nnc(NC(=O)CCS(=O)(=O)Cc2ccccc2)s1 (stereo not shown),13.1
4,COc1ccc(NC(=O)CN2CCN(CC(=O)Nc3ccc(OC)c(OC)c3)CC2)cc1,-74.6
5,COc1cc(/C=N/Nc2snc(SC)c2C#N)cc(OC)c1OC,10.5
6,O=C(c1ccc(C#CC2(O)CCCCC2)cc1)N1CCOCC1,10.7
7,CN(C)S(=O)(=O)c1ccc(C(=O)OCC(=O)Nc2sc3c(c2C#N)CCCCC3)cc1,4.54
8,COc1ccc(OC)c(Cc2nnc(CCC(=O)N3CCC(N4CCCCC4)CC3)o2)c1,-0.336
9,CCOc1ccc(S(=O)(=O)NCc2cccnc2)cc1NC(=O)c1ccccc1F,11.1
10,CC(C)c1nnc(NC(=O)CN(C)S(=O)(=O)c2ccc3c(c2)OCCO3)s1,9.25
11,O=C1CC(c2ccsc2)c2cc3c(cc2N1)OCCO3 (stereo not shown),-4.17
12,O=C(NC(=S)Nc1ccc(N2CCCC2)cc1)c1ccccc1[N+](=O)[O-],-2.59
13,NC(=O)c1cc(C(=O)c2ccc(Cl)cc2Cl)c[nH]1,7.81
14,CNc1cc([N+](=O)[O-])ccc1N/C=C/C(=O)c1cccs1,-0.257
15,O=C(Nc1nnc(CSCc2ccccc2F)s1)c1cccc([N+](=O)[O-])c1,-0.45
16,CCOc1ccc(CC(=O)N2CCC3(CC2)NCCc2[nH]cnc23)cc1,16.3
17,COC(=O)c1cnn(-c2ccccc2)c1-n1cccc1C=O,7.29
18,c1ccc(CCN(Cc2ccccc2)Cc2nc(C3CC3)no2)cc1,10.2
19,COc1ccc(CN(C)CCc2ccccn2)c(OC)c1OC.O=C(O)C(=O)O,-38.9
